# Test results: PMC4336329 (PLoS ONE, 2015)
# Screen size: about 310,000 compounds; about 2,200 (0.71%) showed an effect of 50% or more. The effect is printed as a negative number. This is one part of the list.
# Biological target: human ether-à-go-go-related gene (hERG) potassium channel (human, UniProt Q12809)
# Assay: primary screen, population patch clamp on CHO cells stably expressing hERG
# Chain of human ether-à-go-go-related gene (hERG) potassium channel (Q12809 whole entry, looked up): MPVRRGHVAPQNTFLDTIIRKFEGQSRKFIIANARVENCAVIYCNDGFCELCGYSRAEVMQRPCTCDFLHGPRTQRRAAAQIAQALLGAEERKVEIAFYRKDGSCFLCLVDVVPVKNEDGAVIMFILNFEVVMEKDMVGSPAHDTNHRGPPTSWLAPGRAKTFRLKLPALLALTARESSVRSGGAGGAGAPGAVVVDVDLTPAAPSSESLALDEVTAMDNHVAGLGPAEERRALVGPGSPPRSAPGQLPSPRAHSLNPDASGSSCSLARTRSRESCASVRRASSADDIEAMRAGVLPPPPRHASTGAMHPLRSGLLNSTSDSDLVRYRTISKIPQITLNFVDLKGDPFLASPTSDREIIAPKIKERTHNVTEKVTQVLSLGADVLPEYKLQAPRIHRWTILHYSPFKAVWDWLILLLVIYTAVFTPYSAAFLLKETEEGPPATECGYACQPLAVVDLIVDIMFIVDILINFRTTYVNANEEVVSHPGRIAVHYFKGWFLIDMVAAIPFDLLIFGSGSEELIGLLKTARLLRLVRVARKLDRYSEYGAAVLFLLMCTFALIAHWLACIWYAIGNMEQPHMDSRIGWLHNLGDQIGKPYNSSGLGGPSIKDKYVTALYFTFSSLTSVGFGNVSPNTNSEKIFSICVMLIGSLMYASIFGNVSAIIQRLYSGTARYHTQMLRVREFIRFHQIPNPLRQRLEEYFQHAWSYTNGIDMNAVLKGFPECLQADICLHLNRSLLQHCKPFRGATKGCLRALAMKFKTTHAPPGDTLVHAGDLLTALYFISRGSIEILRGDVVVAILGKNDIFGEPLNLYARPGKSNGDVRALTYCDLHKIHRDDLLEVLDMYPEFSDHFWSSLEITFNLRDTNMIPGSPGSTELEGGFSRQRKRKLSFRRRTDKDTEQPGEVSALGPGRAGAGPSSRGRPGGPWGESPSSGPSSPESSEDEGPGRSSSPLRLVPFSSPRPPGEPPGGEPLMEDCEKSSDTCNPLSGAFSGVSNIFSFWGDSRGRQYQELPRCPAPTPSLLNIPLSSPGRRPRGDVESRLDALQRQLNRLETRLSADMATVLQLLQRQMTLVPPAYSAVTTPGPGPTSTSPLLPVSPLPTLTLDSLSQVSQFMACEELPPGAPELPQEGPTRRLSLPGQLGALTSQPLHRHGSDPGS
row,Compound,"hERG current change (%, negative = inhibition) at 1uM [%]"
1,Cc1cccc(NCc2ccccc2)c1,7.24
2,CCC(=O)O[C@]1(C(=O)CCl)[C@@H](C)C[C@H]2[C@@H]3CCC4=CC(=O)C=C[C@]4(C)[C@@]3(F)[C@@H](O)C[C@@]21C,18
3,COc1ccccc1NC(=O)CCS(=O)(=O)c1ccccc1,11.5
4,Cc1ccc(C(=O)NNc2ncnc3ccccc23)cc1,14.7
5,Cc1[nH]c2ccccc2c1/C=N/NC(=S)NCc1ccccc1,8.46
6,COc1ccc(CNC(=O)C(=O)c2cn(CC(=O)N3CCCC3)c3ccccc23)cc1,4.73
7,O=C(c1sccc1-c1ccccc1)N1CCN(S(=O)(=O)c2ccccc2)CC1,14.1
8,COc1ccccc1Nc1nnc(SCC(=O)NC2CCCC2)s1,10
9,COc1ccc(N(C(=O)c2cnccn2)C(C(=O)NC2CCCCC2)c2ccc(O)cc2)cc1 (centres unmarked),7.73
10,CCC(=O)Oc1ccc(C(=O)Nc2ccc([N+](=O)[O-])cc2)cc1,11.6
11,CCn1cc(C(=O)NCc2ccco2)c(=O)c2cc(S(=O)(=O)N3CCCC3)ccc21,8.36
12,COc1ccc(Cn2c(=O)sc3ccccc32)cc1OC,-10.6
13,COc1ccc(N2CCN(C(=O)Cc3ccc(C)cc3)CC2)cc1,10.9
14,O=C(CC12CC3CC(CC(Br)(C3)C1)C2)NC1CCCC1,9.5
15,Cc1ccc(-n2c(Cn3cnc4ccccc43)nnc2SCC(=O)O)cc1,6.25
16,O=C(N=C1SC2CS(=O)(=O)CC2N1Cc1ccc(F)cc1)C1CCCO1 (centres unmarked),-8.7
17,Cc1cccnc1NC(=O)c1ccc(OCc2c(C)noc2C)cc1,0.733
18,O=C(NC1CCCC1)C(c1ccccn1)N(C(=O)c1csnn1)C1CC1 (centres unmarked),16.6
19,CC(N=Cc1c(O)c2ccccc2oc1=O)C(=O)O (centres unmarked),8.42

row,Compound,"hERG current change (%, negative = inhibition) at 1uM [%]"
1,COCCCNC(=S)N(CCCO)Cc1cc2cc3c(cc2[nH]c1=O)OCO3,13.5
2,CCOC(=O)c1cn2nc(-c3ccc(OCC)cc3)cc2nc1C1CCN(C(=O)OC(C)(C)C)CC1,10.1
3,CCOC(=O)c1sc2nc(N3CCOCC3)c3c(c2c1N)CCC3,13
4,CCn1c(-c2ccccc2)c(C(=O)CC#N)c2ccccc21,6.27
5,O=C(CCC1CCCCC1)Nc1c[nH]c(=O)[nH]c1=O,3.17
6,O=[N+]([O-])c1ccc(N2CCN(S(=O)(=O)c3ccccc3[N+](=O)[O-])CC2)cc1N1CCc2ccccc2C1,5.81
7,COc1ccc(C)cc1S(=O)(=O)N(CC(=O)NCc1ccc(Cl)cc1)Cc1ccccc1,13.1
8,COC(=O)c1ccc(COC(=O)c2ccc(CS(=O)(=O)c3ccc(C)cc3)cc2)cc1,14.7
9,O=C(Nc1ccc(F)cc1F)c1c(C(F)(F)F)ccnc1Oc1ccc(Cl)cc1,12.9
10,CNc1oc(-c2ccccc2)nc1S(=O)(=O)c1ccc(C)cc1,11.9
11,COc1ccc(Cl)cc1S(=O)(=O)NCc1nc2nc(C)cc(C)n2n1,14.8
12,Cc1c(C#N)c2ccccc2n1CC(=O)NCCc1c[nH]c2ccccc12,9.69
13,CC(=O)N(C)c1ccc(NC(=O)Cc2cccs2)cc1,11.7
14,Cc1ccc(O)c(CNc2ccc(S(=O)(=O)Nc3nccs3)cc2)c1,10.9
15,CCC(C)NC(=O)CCn1c(-c2ccccc2)cc(C(C)=O)c1C (centres unmarked),18.3
16,Cc1ccc(CNc2cnccn2)cc1,3.96
17,Cc1ccc(OCCC(=O)OCC(=O)C(C)(C)C)cc1,-5.69
18,O=[N+]([O-])c1cc([N+](=O)[O-])c2cccnc2c1O,11.1
19,Cc1nn(Cc2ccccc2)c2sc(C(=O)NCc3cccnc3)cc12,2.32

row,Compound,"hERG current change (%, negative = inhibition) at 1uM [%]"
1,CN1CCN(S(=O)(=O)c2cnc(Cl)c(Br)c2)CC1,15.6
2,CCCn1c(C)cc(C(=O)COc2ccc(C)nc2[N+](=O)[O-])c1C,5.04
3,Cc1ccc(OCCOCCn2cnc3ccccc3c2=O)c([N+](=O)[O-])c1.O=C(O)C(=O)O,-6.31
4,Cn1cc(CN2CCC[C@H]2CO)c(-c2cccc(Cl)c2)n1,1.6
5,CN(C)S(=O)(=O)c1ccc(C(=O)NCC(=O)N/N=C/c2ccco2)cc1,13.4
6,O=C(c1ccc2ccccc2n1)N1CCN(c2ccccc2O)CC1,4.36
7,Cc1cc(S(=O)(=O)Nc2ccc(C(=O)NCCCN3CCOCC3)cc2)ccc1F,19.8
8,CCOc1cccc(C(=O)Nc2nccs2)c1,6.21
9,C/C(=N\NC(=S)Nc1ccccc1C)c1cc2ccccc2o1,10
10,CCCCC(=O)NC1(C(F)(F)F)NC(=O)N(Cc2ccccc2)C1=O (centres unmarked),7.06
11,CC(=O)c1c(Nc2ccc3c(c2)OCCO3)oc(C)cc1=O,6.03
12,COC(=O)c1ccc(C)c(NC(=O)CCSc2ccc(Cl)cc2)c1,10.3
13,CN=C(Nc1ccc(Cl)cc1)c1cccc(C(F)(F)F)c1,16.8
14,Cc1ccc(S(=O)(=O)NNC(=O)c2ccc(O)cc2)cc1,9.36
15,CN1Cc2c(N3CCOCC3)nc(SCc3ccccc3)c(C#N)c2CC1(C)C,14.1
16,Cc1ccc(C)c2[nH]c(=O)c(C(c3nnnn3Cc3ccccc3)N3CCc4ccccc4C3)cc12 (centres unmarked),-0.939
17,Cc1cc(C(=O)NCC(=O)OC(C)C(=O)N2CCOCC2)ccc1[N+](=O)[O-] (centres unmarked),4.55
18,O=C(CSc1nc2ccsc2c(=O)n1Cc1ccccc1)NCC1CCCO1 (centres unmarked),-2.18
